Data reported in PubChem BioAssay AID624417 (National Center for Advancing Translational Sciences (NCATS), 2012).
The campaign covered roughly 410,000 compounds. About 6,400 (1.6%) were called active. This list was built around the results that the source calls inconclusive (neither active nor inactive); the mix of calls is not that of the screen. Calls come from the whole dose curve; as a rule, active = well fitted inhibition curve with a large enough effect; inconclusive = small, poorly fitted or top-dose-only effect; inactive = no such curve, though single readings can be large or run the other way. Potencies of inconclusive entries are doubtful fits and often do not repeat.

target: Glucagon-like peptide 1 receptor (Homo sapiens) (UniProt P43220); assay: qHTS of GLP-1 Receptor Inverse Agonists (Inhibition Mode); conditions: HEK293 GLP-1R CRE-luciferase, luminescence, 24 h, GLP-1R form is constitutively active; series mostly up to 38.3 µM; note: nearly all actives have a fitted effect of over 55% in size
Procedure, shortened: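 Readout was luciferase luminescence, measured 12 min after detection reagent at room temperature. Beforehand, GLP-1R reporter HEK293 cells had sat 12 h, then received compounds for 24 hr at 37 deg C.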
Potency is the fitted concentration of half-maximal effect; tags give direction and shape of the fitted curve.

Sequence of UniProt P43220 (P43220 whole entry, looked up): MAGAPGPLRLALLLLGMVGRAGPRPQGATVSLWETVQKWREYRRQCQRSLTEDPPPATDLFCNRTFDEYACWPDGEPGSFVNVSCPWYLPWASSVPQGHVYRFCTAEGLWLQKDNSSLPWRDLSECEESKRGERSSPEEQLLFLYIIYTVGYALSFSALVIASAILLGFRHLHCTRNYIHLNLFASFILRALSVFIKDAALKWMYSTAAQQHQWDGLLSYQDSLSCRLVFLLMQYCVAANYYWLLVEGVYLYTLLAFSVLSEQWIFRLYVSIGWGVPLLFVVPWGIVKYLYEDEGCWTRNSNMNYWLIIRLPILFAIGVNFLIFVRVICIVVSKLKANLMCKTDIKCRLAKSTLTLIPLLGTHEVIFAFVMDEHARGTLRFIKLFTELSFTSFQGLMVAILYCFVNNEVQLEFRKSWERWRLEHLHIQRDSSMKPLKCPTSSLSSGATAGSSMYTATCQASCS

Potency, inactive:
FC(F)(F)c1ccccc1Cc1c(-c2ccc(Cl)cc2)nc2c3ccccc3ccn12, CCOc1ccc2c(=O)c(Oc3ccccc3OCC)coc2c1, Cc1c(Cl)cccc1NC(=S)N1CCN(C(=O)C2CCCO2)CC1 (centres undefined), O=C(Nc1ccc(N2CCCC2)c(Cl)c1)c1ccccc1[N+](=O)[O-], C(=NOCCc1ccccc1)c1ccncc1, CCOC(=O)C1CC2=C(CC(C)(C)CC2=O)N(CCOC)C1=O (centres undefined), CC1CCN(CC(C)OC(=O)c2ccc3c(c2)OCCO3)CC1 (centres undefined), COc1ccc(NC(=O)C2COc3ccccc3O2)cc1 (centres undefined), CCc1cc(C(=O)OC)c(NC(=O)CN2CCN(C(=O)c3ccco3)CC2)s1, Cc1cc(C)c(CN2CCN(CCCn3ccc(NC(=O)OCc4ccccc4)nc3=O)CC2)c(C)c1, CCOC(=O)c1c(C)n(C(=O)c2ccco2)c(=O)n1C(=O)c1ccco1, CCN(CC)C(=O)C1=C(C)Nc2nc3ccccc3n2C1c1cccc(Cl)c1 (centres undefined), CCC(=O)Nc1ccccc1C(=O)OCC(=O)Nc1ccc(S(N)(=O)=O)cc1, COc1ccc(CC(=O)Nc2ccc(C(=O)NCC(C)C)cc2)cc1, COc1ccc(-c2c(C)nn3c(Cl)c(C)c(C)nc23)cc1, CCOc1ccc(C(=O)NCc2ccco2)cc1OC, COc1ccccc1Cn1c(CNS(=O)(=O)c2cccc([N+](=O)[O-])c2)nc2cccnc21, CCC(Sc1nc2ccccc2c2nc(CCc3c(C)n[nH]c3C)nn12)C(=O)Nc1ccccc1F (centres undefined), O=C(N/N=C/C1CC=CCC1)c1ccccc1O (centres undefined), COc1ccc(C)cc1N(CC(=O)N/N=C/c1ccc2c(c1)OCO2)S(C)(=O)=O, COc1ccc(C(=O)c2[nH]c(N)c(C(N)=O)c2-c2ccc(OC)c(OC)c2)cc1, COc1cc(CNc2ccc3[nH]c(=O)[nH]c3c2)cc(Cl)c1OCc1ccccc1F, C[C@H](CO)N1C[C@H](C)[C@@H](CN(C)C(=O)Nc2ccccc2)Oc2ccc(NS(=O)(=O)c3cn(C)cn3)cc2C1=O, CCOC(=O)N1CCN(Cc2nc(-c3cccs3)no2)CC1

Potency, active:
O=C1NC[C@@H](Cc2cccc3ccccc23)N(CC2(c3ccccc3)CC2)C1=O 11.2 µM, O=C(Nc1ccccc1-c1ccccc1)C12CC3CC(CC(C3)C1)C2 2 µM

Potency, inconclusive:
CCCn1c2ccccc2c2cnn(CC(=O)NCCCN3CCCC(C)C3)c(=O)c21 (centres undefined) 28.2 µM [inhibitor, single point], O=C(c1[nH]ncc1-c1cccc(Br)c1)C1CO1 (centres undefined) 11.2 µM [inhibitor, single point], Cc1c(C(=O)NCc2ccc(C(F)(F)F)cc2)sc(=O)n1Cc1cccc(F)c1 28.2 µM [inhibitor, single point], CCOC(=O)c1c(CN2CCN(C)CC2)n(-c2ccccc2)c2cc(Br)c(O)cc12 2 µM [inhibitor, partial curve, poor fit], COc1ccc(OCc2cc(C(=O)NC(C)Cc3ccccn3)no2)c(Cl)c1 (centres undefined) 31.6 µM [inhibitor, single point], COc1ccc(NC(=O)C[C@H]2C(=O)N(Cc3ccccc3)C[C@@H]2CSC)cc1 31.6 µM [inhibitor, single point], CCC/C(C#Cc1cc(OC)cc(OC)c1)=C1/c2ccccc2C(=O)N1c1ccccc1 11.2 µM [inhibitor, single point], Cc1ccc(C2(CCNC(C)c3cccs3)CCOC(C(C)C)C2)cc1 (centres undefined) 10 µM [inhibitor, partial curve, poor fit], COc1ccc(N=c2sc3ccccc3n2C)cc1 28.2 µM [inhibitor, single point], O=C(NCCc1nc2ccccc2[nH]1)/C(=C/c1ccco1)NC(=O)c1ccc(Br)cc1 7.94 µM [inhibitor, partial curve, poor fit], Cc1ccc(C(=O)NNC(=O)CCn2nnc3ccccc32)cc1 28.2 µM [inhibitor, single point], COC(=O)c1sccc1NC(=O)c1ccc(Br)s1 28.2 µM [inhibitor, single point], CCOC(=O)c1nnc(-c2ccccc2)nc1Sc1c(Cl)cccc1Cl 28.2 µM [inhibitor, single point], COC(=O)c1ccc(COc2ccc(/C=N/NC(N)=S)cc2)o1 28.2 µM [inhibitor, single point], O=C(CN1CCN(Cc2ccccc2)CC1)Nc1nc2ccccc2s1 11.2 µM [inhibitor, partial curve, poor fit], CCCn1c(C)cc(C(=O)CN2C(=O)c3ccccc3C2=O)c1C 8.91 µM [inhibitor, partial curve, poor fit], COc1ccccc1NC(=O)Nc1nc(CC(=O)N2CCN(c3ccc(F)cc3)CC2)cs1 8.91 µM [inhibitor, partial curve, poor fit], O=c1[nH]c(-c2ccccc2Cl)nc2c1sc(=S)n2-c1ccccc1 5.01 µM [inhibitor, partial curve, poor fit], Cc1ccc(-n2c(Cl)c(Cl)nc(Cl)c2=O)cc1 4.47 µM [inhibitor, full curve, poor fit], O=C(CSc1nc2ccccc2n1-c1ccccc1)Nc1ncc(Cl)cc1Cl 12.6 µM [inhibitor, partial curve, poor fit], Cc1cccc(C)c1NC(=O)CSCc1cnn(-c2ccccc2)c1-n1cccc1 20 µM [inhibitor, single point], COc1ccc(C=CC(C)=NNC(=O)c2ccncc2)cc1 14.1 µM [inhibitor, single point], Cc1ccccc1-n1c(SCC(=O)NCc2cccs2)nc2ccccc2c1=O 10 µM [inhibitor, partial curve], COc1ccc(-c2nc3ccc(C)cn3c2Cc2ccccc2)cc1OC 31.6 µM [inhibitor, single point], O=C1C=C(c2ccccc2)CC(c2ccc(F)cc2)C1 (centres undefined) 31.6 µM [inhibitor, single point], CCN(CC(=O)NCc1ccc(F)cc1)C(=O)COc1ccc2ccccc2c1 8.91 µM [inhibitor, partial curve], Cc1ccc(CNC(=O)c2ccc3c(c2)N(Cc2cccc(C)c2)C(=O)CS3)cc1 28.2 µM [inhibitor, single point], COc1ccc(C2C(C(=O)c3ccccc3)=C(C)Nc3nc4ccccc4n32)cc1OC (centres undefined) 0.501 µM [inhibitor, full curve, poor fit], CCOC(=O)c1sc(NC(=O)c2cccc(S(=O)(=O)N3CCN(C)CC3)c2)cc1C 0.316 µM [inhibitor, full curve, poor fit], O=C(NCCc1cccc(Cl)c1)c1ccc(Cl)c([N+](=O)[O-])c1 28.2 µM [inhibitor, single point], COc1ccc(-n2ncc3c(NCC(C)C)ncnc32)cc1 7.94 µM [inhibitor, partial curve, poor fit], CC(=O)Nc1cccc(Oc2ncnc3scc(-c4ccc(C(C)C)cc4)c23)c1 22.4 µM [inhibitor, single point], [N-]=[N+]=CC(=O)C(O)(c1ccccc1)C(Cl)c1ccccc1 (centres undefined) 28.2 µM [inhibitor, single point], COc1ccc(C(=O)CC(=O)c2ccc(F)cc2)cc1 31.6 µM [inhibitor, single point], CCN1CCN(CCCNC(=O)C2CCCN(c3nc4c(C)cc(C)cc4s3)C2)CC1 (centres undefined) 10 µM [inhibitor, partial curve, poor fit], COc1ccc(/C=C/C(=O)c2ccc(Cl)cc2)c(OC)c1 11.2 µM [inhibitor, single point], CCOC(=O)C(=NC1CCCCC1)NNc1cccc(C(F)(F)F)c1 8.91 µM [inhibitor, partial curve, poor fit], COc1cccc(C(=O)COc2ccccc2-c2ccccc2)c1 10 µM [inhibitor, partial curve, poor fit], Cc1noc(C)c1COc1ccc(C(=O)N2CC(C)CC(C)C2)cc1 (centres undefined) 11.2 µM [inhibitor, single point], O=C(NCc1ccc(F)cc1)c1ccc(S(=O)(=O)Nc2cccc(C(F)(F)F)c2)cc1 14.1 µM [inhibitor, partial curve, poor fit], COc1ccc(C(C)(NC(C)=O)c2nc(/C=C/c3ccccc3)cs2)cc1 (centres undefined) 28.2 µM [inhibitor, single point], COc1ccc(NC(=O)/C=C/c2cccc(C(F)(F)F)c2)cn1 12.6 µM [inhibitor, partial curve, poor fit], CN(CC(=O)NC(=O)NC1CCCCC1)CC(=O)Nc1ccc(OC(F)(F)F)cc1 28.2 µM [inhibitor, single point]
